# Test results from the supplement of paper PMC11417369.
# Some of the results follow.
# Test system: PfAP2-HC AP2 domain (GST-tagged)
# Experiment: gcPBM binding intensity (ln(normalized median fluorescence intensity)); higher = stronger DNA binding
# Summary of the method: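 Each value is the highest Masliner-normalised natural-log median intensity across replicate spots of either orientation of a probe. The probes were primer-extended double-stranded 36-bp intergenic genomic sequences on an Agilent 4 × 180k array, alongside negative controls, exposed for 1 h to GST-tagged P. falciparum DNA-binding domains expressed in E. coli. Bound protein was picked up with Alexa488 anti-GST antibody and scanned at 488 nm.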
row,Sequence,gcPBM binding intensity (ln)
1,ACAAACAAATAAATATGTACGAATAAATAAAATTTT [XGTACX_site4664],9.97
2,TTTTTTTTCAAAAATACAAAAAAAAAAGAAAAAAAC [CACACA_negctrl_site625],9.49
3,CTTTTAGAATAATCAGTGCAAAAAAAAAAAAAAAAA,9.09
4,GATAATACATAAATTTATAAGTGGAAGAATAAATAA [CACACA_negctrl_site698],9.72
5,GAAATATTACAAAGTACATGCAACGAAAATTTCAGT [TGCATGCA_site608],9.77
6,AAAAAAAAAAAAACTTGTACATGTGATATTATCTAT [XGTACX_site6169],9.61
7,ATTTAATACATACATTCACACACACTAATTGTATAT [CACACA_site9361],10.1
8,TTAAATGTTCTATATACATGCAATGATATGTTTCTG [TGCATGCA_site317],9.43
9,TCAAAGTAGGCTTATATGCACACTTTGAAATATTAT [CACACA_site1920],9.49
10,TAGTTAATATGAAAAAGTACACGTTTCAGTGAAAGT [XGTACX_site7402],9.8
11,TTTAAAATAAATATTACACACAAAATATTAAAAAGC [CACACA_site2129],9.96
12,ATATATACATATGGGTGTACATATGCACATATATAT [XGTACX_site8437],9.84
13,ACAAAAAAAAACGTGGTGCATTAATAATATTGTATA [GTGCAC_site9469],9.87
14,ATAACACAAAAAGGGGGTACAATAAAAAAAAAAAAA [XGTACX_site1652],9.42
15,AATACCTATAATACAACACACAAGTAATATAAACCT [CACACA_site7661],10.1
16,TATTTATATAGGTATACACACATACAAATATGTAAA [CACACA_site7705],9.71
17,TCATTATATACAATATGTACATATATGTAATAAACA [XGTACX_site4611],9.47
18,AGAAAGAAAGAATACACACACACATATATATATATC [CACACA_site3744],11.5
19,AAAGAATTCATTATTTGTACTTAAATAAATAAATAA [XGTACX_site5932],9.38
20,AAAGGATATGCTTCATATATATATTGTTATATATGT [CACACA_negctrl_site1672],9.58
21,AGCACACGCAGACACACACACACACGCACACGCACA [CACACA_site6306],11.6
22,AAATTAATATAAATATGTACATAAATAATAAAATAT [XGTACX_site6131],10

row,Sequence,gcPBM binding intensity (ln)
1,ATTTTTCAAACTTTAGTGCAATGAAAGAAAGAAAAA,9.5
2,GGAGGTTGTTATAAAAGTACAAAAAGTTGCAATTTT [XGTACX_site7351],9.49
3,GTTTTCCTTCCCTTTCCCCCTCAAAAAAAGGGAACA [TGCATGCA_negctrl_site436],9.4
4,AAGGAATAAAGAAGTTGTACATAATTTGTATCATCC [XGTACX_site3891],9.76
5,ATAAGAAGGAACATAAATATATCATAAAAAAAAAAA [GTGCAC_negctrl_site169],9.52
6,TAAAATTTTTTATTCACACAAATATAGTTATATATA [CACACA_site5348],9.24
7,ATATATTTTTTTTCTTCACACACATGAATTATATAT [CACACA_site9053],10.3
8,ATATATATATATATATGTACATATTATATATGAACG [XGTACX_site1585],9.71
9,AATAATAGAAAAAGGTGTACTTATAAACATATACAC [XGTACX_site6921],9.73
10,GTAATTATTATTAATAGTACACACTATGGCATTTCA [XGTACX_site5192],9.72
11,TATATTAATAGACACACACACATATTTATATTTATA [CACACA_site6859],11.1
12,TATATTTAGTAAAAAGGTACCATTCTTATTTATATT [CACACA_negctrl_site1165],9.58
13,TACTGTGATAGCACCACACACGCAAAAGTGAGTATA [CACACA_site1109],9.71
14,TTTCAGCCAAACGATAAACTACGACACTTGAACGAA [CACACA_negctrl_site1747],9.45
15,TAAGGCCCTTTTCATCGTACAGTAAAATATAAATAA [XGTACX_site1278],9.3
16,CATACTGTGATAGCACCACACACGCAAAAGAGGGTA [CACACA_site8285],10
17,CAAATACATGTGTAAAGTACATATTAATAAGTCTTT [XGTACX_site6342],9.76
18,GAAAATTCTTAAGGCACACACATATATAATATATAC [CACACA_site569],10.4
19,AATTTAACCCATTTTATAATTATTACCACTATATAT [TGCATGCA_negctrl_site452],9.79
20,ATTTTTTTTTTTATGTGTACATATATTTTTTTAATT [XGTACX_site7921],9.83
21,AAGAAAAAATAAACATGTACATAAATATATATATAT [XGTACX_site304],10.1
22,ATTTAATTTATAAAAACACACACAGGTAAAAAGGTG [CACACA_site8306],10.6
